# Experimental data as given in PubChem BioAssay AID651820 (National Center for Advancing Translational Sciences (NCATS), 2012).
# Values joined by “and” are separate entries in the source; they are usually repeats but may differ in a detail not shown here. Equal entries are not always repeated. Out of some 340,000 compounds screened, about 12,000 (3.5%) were called active. Inconclusive means that the source gave no clear call. Such entries were picked first, then a sample of the others. The call rests on the fitted dose curve; in most records, active means well fitted inhibition curve with a large enough effect; inconclusive means small, poorly fitted or top-dose-only effect, or another doubt; inactive means no such curve, though single readings can be large or run the other way. Where the call is inconclusive, the potency comes from a doubtful curve fit.
# Assay: qHTS Assay for Inhibitors of Hepatitis C Virus (HCV)
# Conditions: Huh7.5.1 HCVcc-Cre (HCVcc is cell-culture hepatitis C virus) infection, luciferase reporter, 44 h; activity change, negative = inhibition: at 41.8 µM (top of the series)
# How it was run: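 HCVcc-Cre virus at an moi near 0.5 was added right after compound to cells cultured 4 h from seeding (1,000 cells/well). Luciferase activity was determined 44 h later, 15 min after substrate addition at RT.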
# On the % scale 0 is the no-effect control and ±100 the full control effect; potency means the concentration at half of the fitted maximal effect; tags describe the fitted curve by direction and shape.
Compound,"activity change, negative = inhibition",Potency
Cc1ccccc1Nc1ccc2nonc2c1[N+](=O)[O-],inactive: -1.33%,–
CCCOC(=O)c1ccc(NC(=O)c2ccc(Br)o2)cc1,–,"inconclusive: 14.1 µM [inhibitor, single point]"
CCOC(=O)c1ccc(NC(=O)CS(=O)(=O)c2cn(CC)c3ccccc23)cc1,–,active: 14.1 µM
CCOC(=O)COc1cc(O)c2c(=O)cc(-c3ccccc3)oc2c1,–,"inconclusive: 10 µM [inhibitor, partial curve]"
COC(=O)C1=C(c2ccc(OC(F)(F)F)cc2)C[C@@H]2CC[C@H]1N2C(=O)N1CCC(O)CC1,–,"inconclusive: 22.4 µM [inhibitor, single point]"
O=C(CNc1ccccc1)Nc1cccc2ccccc12,inactive: 4.36%,–
CCCCN=C1N/C(=C\c2ccco2)C(=O)N1c1ccccc1,–,"inconclusive: 3.55 µM [inhibitor, single point]"
COc1cccc(/C=N/NC(=O)c2ccoc2C)c1,inactive: 3.75%,–
CCOC(=O)c1c(C)[nH]c(C(=O)N2CCN(c3ccc(OC)cc3)CC2)c1C,inactive: -21.6%,–
O=C(NCCc1ccccc1)C1CC(=O)N(C2CCCCCC2)C1 (stereo unspecified),inactive: 16.8%,–
COc1cccc(C(=O)Nc2ccc(NC(=O)C3C4C=CC(C4)C3C(=O)O)cc2)c1 (stereo unspecified),–,"inconclusive: 11.2 µM [inhibitor, partial curve]"
CCOC(=O)c1sc(-c2ccccc2)cc1N,–,"inconclusive: 31.6 µM [inhibitor, single point]"
Cc1sc2ncnc(N3CCC(C(=O)NNC(=O)c4ccc(F)cc4)CC3)c2c1C,–,"inconclusive: 6.31 µM [inhibitor, partial curve]"
OC(COc1ccc2ccccc2c1Br)Cn1cnc(-c2ccccc2)c1 (stereo unspecified),–,"inconclusive: 31.6 µM [inhibitor, single point]"
CCOC(=O)c1snc(-c2ccc(F)cc2)c1N,inactive: 2.5%,–
Clc1ccc(OCc2nc(-c3ccccn3)n[nH]2)cc1,–,"inconclusive: 14.1 µM [inhibitor, single point]"
CCCc1cc(=O)[nH]c(SCC(=O)NCC2COc3ccccc3O2)n1 (stereo unspecified),inactive: 21.7%,–
O=C(Nc1cc(S(=O)(=O)N2CCOCC2)ccc1N1CCCC1)c1cc(F)c(F)cc1Cl,inactive: 4.65%,–
C=C(C)C1CC=C(C)/C(=N/NC(=S)Nc2ccccc2)C1 (stereo unspecified),–,"inconclusive: 22.4 µM [inhibitor, single point]"
CCc1c(C)sc(NC(=O)CN2CCN(C(=O)c3ccco3)CC2)c1C(=O)OC,–,active: 11.2 µM
Cc1ccc2nc(SCC(=O)N3CCN(C(=O)c4ccco4)CC3)[nH]c2c1,inactive: 21.5%,–
COc1ccc(Nc2nc(CC(C)=O)ns2)cc1OC,inactive: -3.72%,–
N#C/C(=C\c1ccc(Cl)cc1)c1nc2ncccc2[nH]1,–,"inconclusive: 1.26 µM [inhibitor, partial curve]"

Compound,"activity change, negative = inhibition",Potency
O=C(Nc1ccc(F)c(Cl)c1)N1CCCC1,inactive: 12.7%,–
O=C(CSc1nnnn1Cc1ccccc1)Nc1ccc2c(c1)OCO2,inactive: -11.7%,–
Cc1ccc(NC(=O)C(=O)NCCN2CCN(Cc3ccc([N+](=O)[O-])cc3)CC2)cc1,–,"inconclusive: 2.82 µM [inhibitor, partial curve]"
Cc1ccc(CN2CC(C(=O)N3CCN(S(=O)(=O)c4ccc(C)cc4C)CC3)CC2=O)cc1 (stereo unspecified),–,"inconclusive: 11.2 µM [inhibitor, single point]"
O=C(Nc1ccc(N2CCCC2)c(Cl)c1)c1cccnc1,–,"inconclusive: 31.6 µM [inhibitor, single point]"
Cc1cc(C)cc(NC(=S)N=Nc2c(O)n(C)c3ccc(S(=O)(=O)N4CCOCC4)cc23)c1,–,"inconclusive: 5.62 µM [inhibitor, full curve, poor fit] and inconclusive: 3.16 µM [inhibitor, partial curve]"
COc1ccc(C2CC(=O)c3c([nH]c(C(=O)OC(C)C)c3C)C2)cc1OC (stereo unspecified),–,"inconclusive: 11.2 µM [inhibitor, partial curve, poor fit]"
CCCn1c2ccccc2c2cnn(CC(=O)NC(C)CC)c(=O)c21 (stereo unspecified),inactive: -10.4%,–
COc1ccc(-c2[nH]ncc2CNCc2cc(C)n(C)n2)c(F)c1,–,"inconclusive: 31.6 µM [inhibitor, single point]"
CCOC(=O)N1CCN(C(=O)Cc2ccc(Cl)cc2)CC1,inactive: -2.7%,–
Cc1cc(=O)[nH]c(N/N=C/c2ccc(O)c(O)c2)n1,inactive: 3.66%,–
CCCc1cc(=O)[nH]c(/N=C(/NC(=O)c2ccccc2)Nc2ccc3c(c2)OCCO3)n1,inactive: -49.7%,–
O=C(C1CCN(S(=O)(=O)N2CCC3(CC2)OCCO3)CC1)N1CCC(Cc2ccccc2)CC1,–,"inconclusive: 31.6 µM [inhibitor, single point]"
CCOc1ccc(N2C(=O)CC(NCCNc3ccc(C(=O)c4cccs4)cc3)C2=O)cc1 (stereo unspecified),–,"inconclusive: 8.91 µM [inhibitor, partial curve]"
O=C(NCCc1c[nH]c2ccccc12)c1ccc([N+](=O)[O-])cc1,–,"inconclusive: 31.6 µM [inhibitor, single point]"
Fc1cccc(CSc2ncnc3c2ncn3C2CCCCO2)c1 (stereo unspecified),–,"inconclusive: 22.4 µM [inhibitor, single point]"
Nc1c(C(=O)NCc2ccccc2)sc2nc(N3CCOCC3)c3c(c12)CCCC3,–,"inconclusive: 15.8 µM [inhibitor, partial curve]"
Cc1ccc(C(=O)N2CCN=C2SCc2ccc([N+](=O)[O-])cc2)cc1,–,"inconclusive: 25.1 µM [inhibitor, single point]"
COc1cc(-c2cc(C(=O)Nc3ccccc3N3CCOCC3)c3ccccc3n2)cc(OC)c1OC,–,"inconclusive: 10 µM [inhibitor, partial curve]"
O=c1[nH]c(C2CCN(S(=O)(=O)c3ccc4c(c3)OCCO4)CC2)nc2c1nnn2Cc1ccc(F)cc1,inactive: -20.4%,–
Cc1ccc(Nc2ccc(S(=O)(=O)N3CCOCC3)cc2[N+](=O)[O-])cc1C,–,active: 17.8 µM
COc1cc(CNCc2cc(OC)ccc2OC)cc(OC)c1,–,"inconclusive: 20 µM [inhibitor, single point]"
O=C(Nc1ccc2oc(-c3ccccc3)nc2c1)c1ccc2c(c1)OCCO2,–,active: 10 µM
